The full ranking holds about 33,000 sequences; the median of “E-score (-0.5 to 0.5)” is about -0.012, and the highest 2% start at about 0.27. The list shows a part of the results.
Biological target: T1, Vhr1 (UniProt P40522)
T1 sequence: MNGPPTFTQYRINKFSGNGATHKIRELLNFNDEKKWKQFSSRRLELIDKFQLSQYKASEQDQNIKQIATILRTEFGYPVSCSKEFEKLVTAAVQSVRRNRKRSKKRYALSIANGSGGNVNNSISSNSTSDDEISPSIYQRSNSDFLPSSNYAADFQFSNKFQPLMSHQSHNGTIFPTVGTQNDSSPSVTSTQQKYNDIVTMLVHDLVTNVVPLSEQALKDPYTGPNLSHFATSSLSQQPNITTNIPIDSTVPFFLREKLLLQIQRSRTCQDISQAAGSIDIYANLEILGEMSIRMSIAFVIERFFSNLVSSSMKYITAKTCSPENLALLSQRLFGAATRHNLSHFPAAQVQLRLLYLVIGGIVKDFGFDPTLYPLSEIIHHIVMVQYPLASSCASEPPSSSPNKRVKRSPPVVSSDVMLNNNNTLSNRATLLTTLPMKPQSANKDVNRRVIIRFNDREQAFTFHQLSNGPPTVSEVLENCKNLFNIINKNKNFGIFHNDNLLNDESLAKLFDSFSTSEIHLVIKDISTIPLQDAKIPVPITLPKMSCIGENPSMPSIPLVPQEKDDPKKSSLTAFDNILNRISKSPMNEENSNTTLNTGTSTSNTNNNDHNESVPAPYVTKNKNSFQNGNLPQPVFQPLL
Assay: PBM E-score (8-mer binding enrichment) (E-score (-0.5 to 0.5)); higher = stronger / more preferred TF binding; most listed sequences are background and not binding sites
Conditions: protein concentration: 200 nM; construct: GST-full length
Procedure, shortened: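 Full-length yeast transcription factors or their DNA-binding domains, GST-tagged and expressed with PURExpress, were applied at about 100-200 nM to universal all-10-mer Agilent arrays. These arrays had been made double-stranded by primer extension on fresh or once-stripped slides. Detection used fluorescent anti-GST, normalisation used masliner, and E-scores for ungapped eight-base words pooled with reverse complements came from the Universal PBM Analysis Suite.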

Sequence	PBM E-score
AAGACAGT	0.0669
AGTAGAAG	-0.159
ACAGGGGC	0.0421
ACTAGGAT	-0.114
CCCGTACC	0.0244
GCACCCAC	0.211
AATCTGGG	-0.076
ATAAGCGG	0.0189
AAGGGGAA	-0.312
AGCTAGGA	0.117
AACAGACT	0.0598
CCTGTCGA	-0.12
CTGGTAAC	0.0684
ACCATCCC	0.054
CTTCCCTA	-0.379
ACTCCAAA	0.0882
AGTTGCCA	-0.126
TGCGAACA	0.0704
GGGGAAGA	-0.0811
ATCGCTAG	0.0291
AAAATGAG	-0.0698
CACAGGGG	0.065
CACTGTGC	0.168
AATGACGG	0.164
CAAGTACC	-0.0803

Sequence	PBM E-score
ACGGAGTG	0.00137
AGCGCCAT	-0.0845
AGATCCCT	-0.142
AACTCTAG	-0.11
AGGTCGGC	-0.0151
CTCCTCGC	-0.138
AGCCGCTC	-0.226
ATATGCGG	0.0512
CTGCTAAC	-0.116
ACCACACC	0.151
AAGGAGGT	-0.229
GGGACCCC	-0.157
AGCCGCTG	-0.0556
ACCCGTGA	0.128
CACCTTCA	-0.066
CACTTGCA	0.138
CAAGGCGA	0.00863
GGTGAGAA	-0.0655
ACTCGATC	0.142
ACTGTGAA	-0.0314
ATGCTATC	0.0928
CTAAGTGA	0.044
CAGTTACG	-0.125
TCCAGAAA	-0.0568
ACATTGAG	0.0142

Sequence	PBM E-score
GACTTAGA	-0.203
CACCCTTC	0.0327
TTACATAA	0.138
TCCGCGGA	-0.0458
CAACAAAA	-0.114
CTCCGGAG	0.161
ACTCTATG	0.0905
ACGGTCAG	-0.131
AGGAAACG	-0.174
CCCGTAAC	-0.118
TGAGGCAA	-0.0116
AGCAGTAA	0.116
AGTCAAAT	0.128
ATGATAGG	0.0955
AGGGTCCA	-0.172
GCATACGC	-0.219
CCTCGCAA	-0.00415
GCGCGCCA	0.149
ACATCTAA	-0.0475
AACCCTCG	-0.0706
GTGGTTTA	0.00241
CAGAGCGA	-0.0311
TTATTCAA	-0.166
AGGGGCGA	0.113
CGACCCAA	0.14

Sequence	PBM E-score
GAATTGTC	-0.136
ATCTGAGG	0.0534
CTCCCGCC	0.0303
AGCAGAGG	-0.172
ACGTTCTC	-0.191
ATACCCGA	0.149
AGAGTAGG	-0.0248
ACTCTTGC	-0.0506
CGCTTCAC	-0.111
GGGGAACA	0.0388
ATGGTTGC	0.0579
ATGACGTA	-0.0698
CAAGAACG	-0.0604
ATGTTTTC	-0.0358
ATCAAATA	0.0347
GATGTGCA	0.123
GCAGCGAA	-0.00828
ATTCTAGG	-0.132
AGGAACAG	-0.125
CTACAGAC	0.0374
ATCCTAAT	-0.0253
ACCCAGCA	0.0926
ATCATCTA	0.15
CCTTGTTC	-0.186
CACCCAGA	0.0926

Sequence	PBM E-score
CATTGGCG	0.00375
ATAGTGAC	0.138
CGCCGCGC	0.101
TATCGCAA	0.144
CAGAAGCC	-0.0916
GAGTGAAC	-0.0149
GGAGACAC	0.163
CACTATAC	0.042
AATGTGTA	0.133
AGGGACGG	-0.144
ATACCTGC	-0.0926
ATCGTAAT	0.176
CCATTCAA	0.0103
AGCTAATG	-0.0907
CGAGACAA	-0.019
ACTTAACA	-0.0397
AGCTCACG	-0.0664
ACAAAGCA	-0.0014
CGCTACAC	0.0775
GCAGCGCA	-0.0741
CTTTATCA	-0.157
ATACAAGG	-0.0891
ATGCATCA	0.27
AAACGCCC	-0.081
CACAACTC	0.159

Sequence	PBM E-score
CAAACAAG	0.00087
GCATCTCA	-0.00305
AATGTCAG	0.0179
CAAAGATC	-0.141
ACTCTCTA	-0.108
GCCGACGC	0.0232
CCTAGGCC	-0.171
CAAAGGGG	0.0159
AGATTCAG	-0.0576
AGCCAGCG	0.138
CGGAGTGA	0.216
ACTCTCCT	-0.036
ACAGCATA	0.0587
AGTTTACC	-0.117
ACCGGCAA	-0.0698
GACGACAC	0.183
CAGATGAA	0.0161
AACAGCCG	-0.0956
AAGCTCAC	-0.0795
AGATGGCT	0.0661
CCCCTCGG	-0.156
ACCACGAC	0.181
GCTTGCGA	0.295
ATTCATTG	0.0738
CTGATCCC	-0.0802

Sequence	PBM E-score
CTACATAG	0.113
GACCCGCC	0.322
ATAAGTGA	0.0303
AGCTGCCC	0.0494
AGCGTAGA	-0.118
AATCAGGA	0.107
GCCAATAC	-0.136
ATCACATG	0.139
ACAACGGA	0.0332
CCCCCTTC	-0.248
CAACATTC	-0.0974
TGCCACAA	0.0692
CGTTACGC	-0.11
CTAAAAGC	-0.243
AAATGTTC	-0.188
CTTTGAGA	-0.273
ATTCCGCA	-0.0228
AACCCATG	0.161
AAGAGCAT	-0.179
ACATGGTG	0.225
ACGGGACC	-0.239
CTCGAGGA	0.0193

Reference: the supplement of paper PMC3334620
